Data on one compound can be found in PubChem BioAssay (Tox21).

Results filed as inconclusive are left out. Calls follow the shape of the dose curve; as a rule, active = well fitted cell-killing curve with a large enough effect in the repeat runs; inconclusive = weak or mixed curves, or effect the other way; inactive = no such curve, though single readings can be large or run the other way. Some structures have more than one record in an assay (separate samples or runs), and their calls can disagree. The source holds more than one record for some entries. This is not the full list of results. There may be further records. The values listed for one entry are repeated measurements (runs, samples, wells, individuals or studies). A tag in brackets gives the origin of a value. The letters are not those of the source and start again with each entry.

The test is described as follows: qHTS assay to identify small molecule antagonists of the glucocorticoid receptor (GR) signaling pathway - cell viability counter screen (AID 720693). Also: nearly all actives have a fitted effect of over 55% in size. From the text: National Center for Advancing Translational Sciences [NCATS]
NIH Chemical Genomics Center [NCGC]
U.S. Environmental Protection Agency [EPA]
National Institutes of Environmental Health Sciences [NIEHS]
National Toxicology Program [NTP]
U.S. Food and Drug Administration [FDA]
The Glucocorticoid receptor (GR) is one of the members of the nuclear receptor family of ligand-dependent transcription factors. GR plays a critical role in carbohydrate, protein and lipid metabolisms and programmed cell death. CellSensor GR-bla HeLa cell line (Invitrogen) contains a beta-lactamase reporter gene under the control of the glucocorticoid response element stably integrated into HeLa cells, a cervical cancer cell line that expresses glucocorticoid receptor. The activation of the reporter gene under culture conditions can be detected by fluorescence intensity. […]
The GR-bla HeLa cells were dispensed at 1500 cells/5 ul/well in 1536-well black wall/clear bottom plates using a Multidrop Combi (ThermoFisher Scientific, Waltham, MA) dispenser. […] After 1 uL of LiveBLAzerTM B/G FRET substrate was added using a Flying Reagent Dispenser (Aurora Discovery, San Diego, CA), the plates were incubated at room temperature (RT) for 2 hours, and fluorescence intensity was measured by an Envision plate reader (PerkinElmer, Shelton, CT). […] The luminescence was measured using a ViewLux (Perkin Elmer) plate reader.
(In general: In qHTS, concentration-response curves come from the screen itself.)
Potency is read from the fitted curve at half-maximal effect.

For `C[C@]12CC[C@@H]3c4ccc(O)cc4CC[C@H]3[C@@H]1CC[C@@H]2OC(=O)CCC1CCCC1`, the Potency entry is “inactive [sample A] and inactive [sample B] and active: 54.9 µM [sample C]”.
